Experimental findings from PubChem BioAssay AID2202238 (Ras Initiative Chemistry Research Team, Frederick National …, 2025) are described below.

SMILES strings stand for the structures. Some of the results follow. Further columns of the screen follow, without active or inactive calls.

For this assay, the target named is GTPase KRas (Homo sapiens) (UniProt P01116). Description: Covalent labelling of cysteine mutants by fragments, read by mass spectrometry (AID 2202238). Further details: protein at 5 µM with 500 µM competing thiol for 1.5 h. Conditions: KRAS G12D cysteine mutants, disulfide tethering, MALDI-TOF labeling, stronger effect = higher value, fragment at 500 µM.
Where [1] appears, read: measured here: G75C mutant labeling.
Setting [2] is: measured here: H94C mutant labeling.
Setting [3] is: measured here: I36C mutant labeling.
Where [4] appears, read: measured here: L120C mutant labeling.
The mark [5] stands for this setting: measured here: M67C mutant labeling.
Setting [6] is: measured here: M72C mutant labeling.
The mark [7] stands for this setting: measured here: N86C mutant labeling.
The mark [8] stands for this setting: measured here: P121C mutant labeling.
Setting [9] is: measured here: S122C mutant labeling.
Where [10] appears, read: measured here: S136C mutant labeling.
Setting [11] is: measured here: G60C mutant labeling.
The mark [12] stands for this setting: measured here: N26C mutant labeling.

Sequence of UniProt P01116 (P01116 whole entry, looked up, the tested form may be a part): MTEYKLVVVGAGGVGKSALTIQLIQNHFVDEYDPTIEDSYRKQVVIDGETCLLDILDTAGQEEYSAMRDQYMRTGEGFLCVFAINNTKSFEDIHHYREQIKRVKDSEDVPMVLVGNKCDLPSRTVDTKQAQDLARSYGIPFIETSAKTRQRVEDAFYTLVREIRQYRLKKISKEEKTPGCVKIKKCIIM

In the case of `O=C(CCS)Nc1ccc2[nH]c(=O)sc2c1`, the percent labeling is 12.7% under setting [1]; 25.9% under setting [2]; 32.8% under setting [3]; 19.3% under setting [4]; 14.5% under setting [5]; 54.2% under setting [6]. Also, the percent labeling under setting [7] is 11.4%, the percent labeling under setting [8] was determined as 18.3%, the percent labeling under setting [9] was 18.7% and the percent labeling under setting [10] came to 39.9%.

With `COc1cc(C(=O)NCCS)cc2c1OC(C)C2` (stereo not drawn), the percent labeling was 35.6% under setting [11]; 16.1% under setting [1]; 24.8% under setting [2]; 24% under setting [3]; 29% under setting [4]; 20% under setting [5]. In addition, the percent labeling runs as follows: under setting [6], 42.4%; under setting [12], 45.3%; under setting [7], 15.4%; under setting [8], 21.1%; under setting [9], 24.2%; under setting [10], 46.4%.

Compound `COc1cccc(-c2cc(C(=O)NCCS)[nH]n2)c1` registered a percent labeling under setting [11] of 19.7%; a percent labeling under setting [1] of 16.4%; a percent labeling under setting [2] of 16.9%; a percent labeling under setting [3] of 11.6%; a percent labeling under setting [4] of 22.1%; a percent labeling under setting [5] of 12.2%. Also, the percent labeling under setting [6] is 51.9%; the percent labeling under setting [12] was determined as 29.8%; the percent labeling under setting [7] was 15.5%; the percent labeling under setting [8] came out at 17.1%; the percent labeling under setting [9] was found to be 13%; the percent labeling under setting [10] was 19.5%.

As for `O=C(NCCS)c1ccccc1O`, the percent labeling reads like this: under setting [11], 40.7%; under setting [1], 30.6%; under setting [2], 37.3%; under setting [3], 37.5%; under setting [4], 43.6%; under setting [5], 28.8%. For the same compound, the percent labeling is, setting by setting: under setting [6], 47.1%; under setting [12], 34.2%; under setting [7], 32.9%; under setting [8], 35.1%; under setting [9], 29.4%; under setting [10], 37.7%.

On to `COc1ccc(-c2cc(C(=O)NCCS)sc2C)cc1`, for which the percent labeling amounted to 47.8% under setting [11]; 30.2% under setting [1]; 25.1% under setting [2]; 19.3% under setting [3]; 24.5% under setting [4]; 12% under setting [5]. The percent labeling was found to be 77.7% under setting [6]; 37.5% under setting [12]; 15.6% under setting [7]; 18.1% under setting [8]; 9.8% under setting [9]; 33.8% under setting [10].

Compound `Cc1nc(N2CCN(C)CC2)ccc1NC(=O)CCS` registered a percent labeling under setting [1] of 8.4%; a percent labeling under setting [2] of 31.4%; a percent labeling under setting [3] of 34.8%; a percent labeling under setting [4] of 24.9%; a percent labeling under setting [5] of 43.6%; a percent labeling under setting [6] of 20.1%. For the same compound, the percent labeling was determined as 29.4% under setting [7], 25.8% under setting [8], 24.1% under setting [9] and 50.6% under setting [10].

For `Cc1c(NC(=O)CCS)cccc1N1CCCCC1`, the percent labeling reads like this: under setting [1], 5.5%; under setting [2], 14.1%; under setting [3], 14.6%; under setting [4], 18.5%; under setting [5], 17.4%; under setting [6], 27.9%. Further, the percent labeling reads like this: under setting [7], 0%; under setting [8], 16.2%; under setting [9], 16.8%; under setting [10], 27.5%.

For `O=C(NCCS)c1cn(-c2ccc(Cl)c(Cl)c2)cn1`, the percent labeling under setting [11] turned out to be 14.7%; the percent labeling under setting [1] is 13.8%; the percent labeling under setting [2] was 10.4%; the percent labeling under setting [3] was 10.4%; the percent labeling under setting [4] was found to be 11.5%; the percent labeling under setting [5] was 8.4%. The compound also came in with a percent labeling under setting [6] of 56%; a percent labeling under setting [12] of 21%; a percent labeling under setting [7] of 9.4%; a percent labeling under setting [8] of 10.5%; a percent labeling under setting [9] of 6.4%; a percent labeling under setting [10] of 12.7%.

As for `Cc1cc(C)n(Cc2cccc(C(=O)NCCS)c2)n1`, the percent labeling turned out to be 42.7% under setting [11]; 19.3% under setting [1]; 37.9% under setting [2]; 25.3% under setting [3]; 43% under setting [4]; 33.5% under setting [5]. The compound further gave a percent labeling under setting [6] of 37.9%; a percent labeling under setting [12] of 44.2%; a percent labeling under setting [7] of 27.7%; a percent labeling under setting [8] of 26.7%; a percent labeling under setting [9] of 27.4%; a percent labeling under setting [10] of 58.9%.

As to `Cc1noc(C2COCCN2C2CN(C(=O)CCS)C2)n1` (stereo not drawn), the percent labeling under setting [1] amounted to 9.2%; the percent labeling under setting [2] turned out to be 27.3%; the percent labeling under setting [3] is 33.7%; the percent labeling under setting [4] is 30%; the percent labeling under setting [5] came to 31.6%; the percent labeling under setting [6] was 16.1%. Further, the percent labeling by setting is: under setting [7], 22%; under setting [8], 28.7%; under setting [9], 28.5%; under setting [10], 44.1%.

For the compound `CCOC(=O)c1sc(NC(=O)CCS)cc1C1CC1`, the percent labeling turned out to be 9.2% under setting [1]; 15.5% under setting [2]; 18.9% under setting [3]; 12.7% under setting [4]; 11.2% under setting [5]; 39.7% under setting [6]. Besides, the percent labeling came out at 12.1% under setting [7], 12.4% under setting [8], 9.6% under setting [9] and 25.4% under setting [10].

Consider `O=C(NCCS)C1C2Cc3ccc(Br)cc3C21` (stereo not drawn), for which the percent labeling is 36.8% under setting [11]; 8.3% under setting [1]; 17% under setting [2]; 14.7% under setting [3]; 15.3% under setting [4]; 21.7% under setting [5]. Further, the percent labeling came to 31.6% under setting [6]; 28.5% under setting [12]; 10.6% under setting [7]; 15% under setting [8]; 10.2% under setting [9]; 19.4% under setting [10].

For the compound `COC1CC2(CCC(C(=O)NCCS)CC2)C1` (stereo not drawn), the percent labeling by setting is: under setting [11], 31.2%; under setting [1], 13.9%; under setting [2], 32.6%; under setting [3], 22.8%; under setting [4], 35.1%; under setting [5], 32.6%. For the same compound, the percent labeling turned out to be 27% under setting [6]; 39.4% under setting [12]; 31.7% under setting [7]; 29.2% under setting [8]; 32.9% under setting [9]; 47.6% under setting [10].

`O=C(NCCS)c1cnn(-c2cncc3nnnn23)c1`: the percent labeling runs as follows: under setting [11], 9.2%; under setting [1], 0%; under setting [2], 8.2%; under setting [3], 6.1%; under setting [4], 10.8%; under setting [5], 8.6%. Moreover, the percent labeling is, setting by setting: under setting [6], 0%; under setting [12], 17.4%; under setting [7], 6.7%; under setting [8], 7.5%; under setting [9], 8.6%; under setting [10], 16.4%.

Consider `Cc1nnc(SCC2CCCN2C(=O)CCS)s1` (stereo not drawn), for which the percent labeling is, setting by setting: under setting [1], 10.9%; under setting [2], 38.9%; under setting [3], 38.4%; under setting [4], 34.6%; under setting [5], 41.1%; under setting [6], 23.8%. For the same compound, the percent labeling reads like this: under setting [7], 33.7%; under setting [8], 30.3%; under setting [9], 32%; under setting [10], 57%.
